Reference: PubChem BioAssay AID588591 (National Center for Advancing Translational Sciences (NCATS), 2011)
In all, about 390,000 compounds went through this assay and about 4,700 (1.2%) were called active. The shares of active, inactive and inconclusive entries below differ from those in the screen. Calls follow the shape of the dose curve; as a rule, active = well fitted inhibition curve with a large enough effect; inconclusive = small, poorly fitted or top-dose-only effect, or another doubt; inactive = no such curve, though single readings can be large or run the other way. Potencies beside an inconclusive call are fits to weak or partial responses and may not hold up.

These compounds were tested against DNA polymerase eta (Homo sapiens) (UniProt Q9Y253) (assay: qHTS for Inhibitors of Polymerase Eta). Settings: recombinant Pol eta, fluorescent DNA replication assay; series mostly up to 114 µM.
UniProt Q9Y253, sequence (Q9Y253 whole entry, looked up): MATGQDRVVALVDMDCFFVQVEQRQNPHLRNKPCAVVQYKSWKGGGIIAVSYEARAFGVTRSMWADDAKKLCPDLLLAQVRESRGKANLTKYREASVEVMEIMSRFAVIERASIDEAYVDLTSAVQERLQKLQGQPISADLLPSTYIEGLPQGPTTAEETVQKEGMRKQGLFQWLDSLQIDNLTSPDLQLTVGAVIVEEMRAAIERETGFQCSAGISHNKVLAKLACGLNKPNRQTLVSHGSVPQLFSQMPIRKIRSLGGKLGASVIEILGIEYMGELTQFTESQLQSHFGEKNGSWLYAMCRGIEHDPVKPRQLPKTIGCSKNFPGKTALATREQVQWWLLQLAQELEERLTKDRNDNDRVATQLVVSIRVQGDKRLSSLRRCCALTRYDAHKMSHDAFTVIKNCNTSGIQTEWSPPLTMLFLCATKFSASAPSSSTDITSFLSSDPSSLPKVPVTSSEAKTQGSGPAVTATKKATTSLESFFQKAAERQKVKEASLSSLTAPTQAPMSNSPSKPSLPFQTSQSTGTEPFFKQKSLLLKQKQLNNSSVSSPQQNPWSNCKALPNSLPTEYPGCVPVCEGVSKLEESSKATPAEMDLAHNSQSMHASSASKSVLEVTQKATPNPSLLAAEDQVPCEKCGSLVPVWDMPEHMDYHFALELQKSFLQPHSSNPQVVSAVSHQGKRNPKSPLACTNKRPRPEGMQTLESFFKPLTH
Outline: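 Pol eta (10 nM) was preincubated with compounds for 15 min at room temperature, after which fluorescent replication substrate (50 nM final) was added to start the reaction. Fluorescence was read kinetically at 0 and 10 min.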
Potency is read from the fitted curve at half-maximal effect; tags tell the direction and shape of the fitted curve.

For `COCCOC(=O)c1c(C)oc2ccc(NS(=O)(=O)c3ccc(C(=O)O)cc3)cc12`, which Potency is on record?
The Potency was active: 11.2 µM.

For `C=CC(=O)Nc1cccc(Nc2nc(N[C@H]3CC[C@H](N(C)C)CC3)nc3c2ncn3C(C)C)c1`, which Potency is on record?
The Potency was inconclusive: 14.1 µM [inhibitor, full curve, poor fit].

With `COc1ccccc1CC(=O)Nc1ccc(-c2noc(COc3ccc(Br)cc3)n2)cc1` as the compound, how does the Potency read?
The Potency was inconclusive: 44.7 µM [inhibitor, partial curve, poor fit].

How did the Potency turn out when `COc1cc(C2C(C#N)=C(N)OC3=C2C(=O)CC(C)(C)C3)cc2c1OCO2` (stereo not given) was run?
Its Potency is inconclusive: 56.2 µM [inhibitor, partial curve, poor fit].

Which Potency does the source give for `CC1Cn2c(C(=O)NCc3ccccc3Cl)cc3cccc(c32)S1` (stereo not given) here?
The Potency was “inactive”.

How did the Potency turn out when `O=C(NCCO)c1ccc2nc(-c3ccco3)c(-c3ccco3)nc2c1` was run?
Its Potency is active: 3.55 µM.

For `O=C(N/N=C/c1ccoc1)c1ccccc1O`, which Potency is on record?
Its Potency is active: 44.7 µM.

`Cc1cccc(NC(=O)c2cc3c(=O)n(Cc4cccnc4)ccc3nc2C)c1` was tested. Which Potency did it give?
The Potency was “inactive”.

For `CC1=CSC2=NS(=O)(=O)CCN12`, which Potency is on record?
The Potency was inconclusive: 100 µM [inhibitor, partial curve, poor fit].

Which Potency does the source give for `Cc1cc(OCC(=O)Nc2ccc(S(=O)(=O)NC3=NCCCCC3)cc2)c(C(C)C)cc1Cl` here?
The Potency was inconclusive: 79.4 µM [inhibitor, partial curve, poor fit].

For `Cn1c(O)c(N=Nc2nc(-c3ccccc3)cs2)c2ccccc21`, which Potency is on record?
The Potency was inconclusive: 8.91 µM [inhibitor, partial curve].

For `COc1cc(NC(=O)C2CCN(S(=O)(=O)c3c(C)noc3/C=C/c3ccccc3F)CC2)cc(OC)c1OC`, which Potency is on record?
Its Potency is “inactive”.

For `O=C(NCc1ccco1)c1ccc(NC(=O)C2COc3ccccc3O2)cc1` (stereo not given), which Potency is on record?
The Potency was inconclusive: 12.6 µM [inhibitor, partial curve].

For `COc1ccc2oc(/C=C/N(C)C)c(C(=O)c3ccc(Cl)cc3)c2c1`, which Potency is on record?
Its Potency is “inactive”.

For `CCCOc1ccc(C(=O)N(Cc2ccco2)Cc2ccco2)cc1`, which Potency is on record?
Its Potency is inconclusive: 100 µM [inhibitor, partial curve, poor fit].

For `C#CC(=O)N(c1ccc(OC)cc1OC)C(C(=O)NC1CCCC1)c1cccs1` (stereo not given), which Potency is on record?
Its Potency is inconclusive: 56.2 µM [inhibitor, partial curve].

With `COc1ccc(N(C(=O)Cn2nnc3ccccc32)C(C(=O)NCc2ccccc2)c2ccc(F)cc2)cc1` (stereo not given) as the compound, how does the Potency read?
The Potency was “inactive”.

For `Cc1ccc(C(=O)CCC(=O)OCC(=O)Nc2nnc(-c3ccccc3)o2)cc1`, which Potency is on record?
The Potency was inconclusive: 12.6 µM [inhibitor, partial curve].

How did the Potency turn out when `Cc1ccccc1/C=C/C(=O)c1ccc([N+](=O)[O-])o1` was run?
The Potency was inconclusive: 79.4 µM [inhibitor, partial curve].

With `O=C(OCC(=O)N1CCc2ccccc21)c1c2c(nc3ccccc13)CCCCC2` as the compound, how does the Potency read?
Its Potency is inconclusive: 44.7 µM [inhibitor, partial curve, poor fit].

For `COc1ccc(CCNC(=O)C(=O)NCC(c2cccs2)S(=O)(=O)c2ccc(F)cc2)cc1` (stereo not given), which Potency is on record?
The Potency was “inactive”.

`CC(NS(=O)(=O)c1ccccc1)C(=O)NC1CCCC1` (stereo not given) was tested. Which Potency did it give?
The Potency was active: 79.4 µM.

`O=C(NCCc1ccc(Cl)cc1)C1CCN(S(=O)(=O)c2ccc3[nH]ccc3c2)CC1` was tested. Which Potency did it give?
The Potency was “inactive”.

Which Potency does the source give for `CC1=CC(=O)CC2C1(C)CCC(C)C2(C)CCC(C)CC(=O)O` (stereo not given) here?
The Potency was active: 79.4 µM.

Which Potency does the source give for `CC1CN(CC(=O)Nc2ccc(Br)cn2)CC(C)O1` (stereo not given) here?
The Potency was inconclusive: 50.1 µM [inhibitor, partial curve].

With `Cc1cc(C)c2nc(-c3ccccn3)cc(C(=O)Nc3ccc(S(=O)(=O)Nc4cc(C)on4)cc3)c2c1` as the compound, how does the Potency read?
Its Potency is active: 28.2 µM.

How did the Potency turn out when `Cn1nc(CC(=O)NCc2cccc3ccccc23)c2ccccc2c1=O` was run?
The Potency was inconclusive: 28.2 µM [inhibitor, partial curve, poor fit].

How did the Potency turn out when `CC1=CC(C)(C)n2c(O)c(N=N)c3c(C)ccc1c32` was run?
Its Potency is inconclusive: 35.5 µM [inhibitor, partial curve, poor fit].

How did the Potency turn out when `CCCOC(=O)c1cc(-c2ccc(/C=C3/C(=O)N(C)C(=O)C(C#N)=C3C)o2)ccc1Cl` was run?
Its Potency is active: 25.1 µM.

`O=C(COc1ncnc2scc(-c3ccc(F)cc3)c12)NCc1ccco1` was tested. Which Potency did it give?
Its Potency is inconclusive: 39.8 µM [inhibitor, partial curve, poor fit].

How did the Potency turn out when `CN1CCN(CC(O)COc2ccc(C34CC5CC(CC(C5)C3)C4)cc2)CC1` (stereo not given) was run?
Its Potency is inconclusive: 89.1 µM [inhibitor, partial curve, poor fit].

Which Potency does the source give for `C/C(N)=C(/C#N)C(=O)COC(=O)C1Cc2ccccc2CN1S(C)(=O)=O` (stereo not given) here?
Its Potency is active: 20 µM.

How did the Potency turn out when `Cc1cccc2nc(CSCc3ccco3)cn12` was run?
Its Potency is active: 20 µM.

For `C/C(Cn1cnc([N+](=O)[O-])n1)=N\NC(=O)c1ccccc1`, which Potency is on record?
Its Potency is inconclusive: 28.2 µM [inhibitor, single point].

`Cc1ccc(NC(=O)CN2C(=O)S/C(=C/c3ccc(-c4cccc(C(=O)O)c4)o3)C2=O)cc1` was tested. Which Potency did it give?
The Potency was active: 5.62 µM.

For `O=C(Nc1cccc(-c2cn3cccnc3n2)c1)c1ccc2c(c1)OCO2`, which Potency is on record?
Its Potency is inconclusive: 79.4 µM [inhibitor, partial curve].

Which Potency does the source give for `CC(C)C[C@H](NC(=O)c1[nH]cnc1C(=O)Nc1ccc(CNC(=O)OC(C)(C)C)cc1)C(=O)OCc1ccccc1` here?
Its Potency is inconclusive: 20 µM [inhibitor, partial curve, poor fit].

`O=S(=O)(Nc1ncnc2sc3c(c12)CCC3)c1ccc(Cl)s1` was tested. Which Potency did it give?
The Potency was active: 35.5 µM.

With `CCc1cccc(C)c1NS(=O)(=O)c1ccc2c(c1)CC(C)N2C(=O)C1CC1` (stereo not given) as the compound, how does the Potency read?
Its Potency is inconclusive: 79.4 µM [inhibitor, partial curve, poor fit].

`CCc1ccc(-c2nc(NC(=O)c3ccc(OCC(=O)Nc4ccc(F)cc4)c(OC)c3)sc2C)cc1` was tested. Which Potency did it give?
The Potency was inconclusive: 17.8 µM [inhibitor, partial curve].

Which Potency does the source give for `CCOc1cc(N2CCOCC2)c(OCC)cc1NC(=O)CN1CCc2ccccc2C1` here?
Its Potency is inconclusive: 89.1 µM [inhibitor, partial curve, poor fit].

For `Cc1ccc(NC(=O)CSc2ccccc2NC(=O)c2ccccc2)cc1Cl`, which Potency is on record?
Its Potency is inconclusive: 25.1 µM [inhibitor, partial curve, poor fit].

With `Cc1ccc2nc(-c3ccccn3)c(Nc3ccccc3C)n2c1` as the compound, how does the Potency read?
The Potency was inconclusive: 79.4 µM [inhibitor, partial curve, poor fit].

How did the Potency turn out when `O=c1cc(-c2ccccc2)n(S(=O)(=O)c2ccc3ccccc3c2)o1` was run?
Its Potency is inconclusive: 3.98 µM [inhibitor, partial curve].

Which Potency does the source give for `Cc1nnc2sc(COc3ccccc3)nn2c1=O` here?
Its Potency is inconclusive: 20 µM [inhibitor, partial curve, poor fit].

How did the Potency turn out when `CCOC(=O)c1cnc2ccc(OCC)cc2c1NCc1ccccc1` was run?
Its Potency is inconclusive: 3.16 µM [inhibitor, partial curve, poor fit].

`CCN(CC)CCCNc1nc2ccccc2c2nc(-c3ccncc3)nn12` was tested. Which Potency did it give?
The Potency was “inactive”.

For `COc1cc2c(cc1OC)C(C)N(C(=O)c1c(-c3ccccc3)noc1C)CC2` (stereo not given), which Potency is on record?
The Potency was “inactive”.

With `CCOC(=O)COn1c(=O)c(=O)n(O)c2ccccc21` as the compound, how does the Potency read?
Its Potency is inconclusive: 20 µM [inhibitor, partial curve].

For `Oc1cc2c(cc1C(c1ccc(Br)cc1)N1CCCC1)OCO2` (stereo not given), which Potency is on record?
The Potency was “inactive”.

Which Potency does the source give for `Cc1cnc(C(=O)Nc2ccc(C)c(S(=O)(=O)N3CCCCC3)c2)cn1` here?
Its Potency is inconclusive: 31.6 µM [inhibitor, single point].

How did the Potency turn out when `CC1(C)Cc2c(c(N3CCOCC3)nc3sc(-c4ccc(C(=O)O)o4)c(N)c23)CO1` was run?
The Potency was inconclusive: 31.6 µM [inhibitor, partial curve, poor fit].

Which Potency does the source give for `Cc1ccc(S(=O)(=O)N2CCCc3cc(NS(=O)(=O)c4ccc(F)cc4)ccc32)cc1` here?
The Potency was inconclusive: 44.7 µM [inhibitor, partial curve, poor fit].

With `O=C(Cn1nnc(-c2ccccc2NC(=O)c2cccs2)n1)Nc1ccccc1` as the compound, how does the Potency read?
The Potency was inconclusive: 28.2 µM [inhibitor, single point].

For `COC(=O)Cc1cc(=O)n(-c2nc3ccccc3s2)[nH]1`, which Potency is on record?
The Potency was inconclusive: 100 µM [inhibitor, partial curve, poor fit].

`COc1cc(/C=C2\SC(=S)N(NC(=O)c3ccccc3OC)C2=O)ccc1O` was tested. Which Potency did it give?
The Potency was inconclusive: 39.8 µM [inhibitor, partial curve, poor fit].

With `O=C1CCC[C@@H]2Cc3nc4ccc(O)cc4cc3[C@@H]3CCN1[C@H]23` as the compound, how does the Potency read?
The Potency was inconclusive: 22.4 µM [inhibitor, full curve].

How did the Potency turn out when `CN1CCN(c2nc3c(c(=O)[nH]c(=O)n3C)n2CCCSc2nnnn2-c2ccccc2)CC1` was run?
Its Potency is “inactive”.

Which Potency does the source give for `O=C(COC(=O)c1ccc(S(=O)(=O)N2CCCCC2)cc1)Nc1ccccc1Cl` here?
The Potency was inconclusive: 100 µM [inhibitor, single point].

`CCCSC1=N/C(=C\C=C\c2ccco2)C(=O)S1` was tested. Which Potency did it give?
Its Potency is active: 7.08 µM.

`Nc1c(C(=O)c2ccc(Cl)cc2)sc2nc3c(cc12)CCC3` was tested. Which Potency did it give?
Its Potency is inconclusive: 39.8 µM [inhibitor, single point].

How did the Potency turn out when `CCc1ccc(-c2cc(C)no2)cc1S(=O)(=O)NCc1ccco1` was run?
The Potency was inconclusive: 35.5 µM [inhibitor, partial curve, poor fit].

Which Potency does the source give for `CCOC(=O)c1ccc(NC(=S)NCCc2ccccc2)cc1` here?
The Potency was inconclusive: 31.6 µM [inhibitor, single point].

How did the Potency turn out when `O=C(CS(=O)(=O)c1cccc2nsnc12)NCc1ccccc1Cl` was run?
Its Potency is “inactive”.

For `Cc1ccc(/C=C/C(=O)c2ccccc(=O)c2O)c(C)c1`, which Potency is on record?
Its Potency is inconclusive: 56.2 µM [inhibitor, partial curve, poor fit].
